Source: the supplement of paper PMC3334620
The full ranking holds about 33,000 sequences; the median of “E-score (-0.5 to 0.5)” is about -0.021, and the highest 2% start at about 0.32. The list shows a part of the results.

Target: T1, Zap1 (UniProt P47043)
T1 sequence: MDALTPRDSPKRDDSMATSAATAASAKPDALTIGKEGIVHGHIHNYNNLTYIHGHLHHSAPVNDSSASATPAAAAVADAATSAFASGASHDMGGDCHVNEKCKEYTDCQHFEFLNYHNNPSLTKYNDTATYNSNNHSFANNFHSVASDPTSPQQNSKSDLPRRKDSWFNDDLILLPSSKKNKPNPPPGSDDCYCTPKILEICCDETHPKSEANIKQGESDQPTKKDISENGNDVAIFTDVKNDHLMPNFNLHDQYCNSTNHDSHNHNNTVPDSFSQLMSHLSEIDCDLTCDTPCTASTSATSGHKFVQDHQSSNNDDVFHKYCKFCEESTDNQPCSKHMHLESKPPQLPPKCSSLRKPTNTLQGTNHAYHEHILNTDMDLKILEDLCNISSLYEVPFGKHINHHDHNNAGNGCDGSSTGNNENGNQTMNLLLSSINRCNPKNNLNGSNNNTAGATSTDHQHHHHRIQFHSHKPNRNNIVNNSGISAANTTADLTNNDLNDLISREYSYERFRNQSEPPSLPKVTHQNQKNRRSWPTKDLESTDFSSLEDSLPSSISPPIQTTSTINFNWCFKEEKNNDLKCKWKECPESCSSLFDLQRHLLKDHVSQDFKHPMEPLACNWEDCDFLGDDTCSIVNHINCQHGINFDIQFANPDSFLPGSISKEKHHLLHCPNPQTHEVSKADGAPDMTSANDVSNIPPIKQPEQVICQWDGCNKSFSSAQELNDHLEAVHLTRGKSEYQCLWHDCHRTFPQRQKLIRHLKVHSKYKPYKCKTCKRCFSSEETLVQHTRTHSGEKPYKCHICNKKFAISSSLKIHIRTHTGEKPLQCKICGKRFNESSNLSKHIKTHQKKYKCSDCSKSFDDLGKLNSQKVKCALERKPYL
Test: PBM E-score (8-mer binding enrichment) (E-score (-0.5 to 0.5)); higher = stronger / more preferred TF binding; most listed sequences are background and not binding sites
Conditions: protein concentration: 200 nM; construct: GST-full length
How it was run: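 Universal all-10-mer Agilent arrays, double-stranded by primer extension on fresh or once-stripped slides, were probed with about 100-200 nM GST-tagged yeast transcription factors made by PURExpress. Fluorescent anti-GST detected bound protein, and masliner normalised the scans. E-scores from the Universal PBM Analysis Suite were given to each ungapped eight-base word pooled with its reverse complement.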

| Sequence | PBM E-score |
| --- | --- |
| ATTCTGTG | -0.0176 |
| GACCGCTA | 0.141 |
| TAACATAA | 0.225 |
| GGTATAAA | 0.158 |
| CCTTCATC | -0.115 |
| GAATGCTA | -0.169 |
| CGGCAACC | 0.189 |
| AGGGAAAT | -0.165 |
| ACTACTTC | -0.186 |
| CAGTCTAC | -0.161 |
| CGCTATGC | -0.388 |
| GATATATA | 0.2 |
| TGCTCTAA | -0.139 |
| AGGCGCAG | -0.266 |
| CCCGCTCA | -0.0561 |
| ATGGCCGG | -0.105 |
| AGAAGGAG | -0.303 |
| GAGTGATA | 0.131 |
| AACGCCAA | -0.154 |
| GACTGGCA | -0.256 |
| AGCAATCG | -0.18 |
| CAATTGGG | -0.0104 |
| AGGATTGA | -0.0238 |
| CTGGGCGC | -0.24 |
| ACCCAATC | 0.175 |

| Sequence | PBM E-score |
| --- | --- |
| AGAACCAA | 0.148 |
| CATTGTTA | 0.0792 |
| CTAACCGA | -0.035 |
| CTCTCTGA | -0.281 |
| CCTTCGCG | 0.237 |
| CATTATGG | -0.104 |
| CGCATGGA | -0.195 |
| ATCTTGTC | -0.14 |
| CATTCCAG | -0.153 |
| GGAACCCA | 0.171 |
| AGTGTGGC | 0.0113 |
| ATGTGGCC | 0.0114 |
| ATCCGCAT | -0.0412 |
| CTAGAACC | 0.0618 |
| GGGCCGAA | -0.0565 |
| CGATCTCA | -0.108 |
| AAACTTGT | 0.215 |
| CCCCGAGG | 0.139 |
| CGGTTAGA | 0.234 |
| CATGAAGC | -0.168 |
| AACGCCCG | -0.136 |
| ACGTTCTG | -0.145 |
| ACATTGCA | 0.00575 |
| GACGTCCA | -0.117 |
| CCAGGACA | -0.134 |

| Sequence | PBM E-score |
| --- | --- |
| TATGTTGA | 0.0657 |
| ACGCAATA | 0.0123 |
| GATGGTCC | -0.0967 |
| GCTCGAAC | -5e-05 |
| ACACTTAC | -0.143 |
| AGTCAAGG | 0.0598 |
| GGCTCCAC | -0.266 |
| GCGAGGAA | -0.0961 |
| AACAGAGG | 0.011 |
| ACTCACAC | -0.0215 |
| GTCCAAAC | 0.0137 |
| GTACCATA | 0.288 |
| AGAGGTTG | 0.218 |
| AAATAGAC | -0.0181 |
| CGTACGTC | -0.34 |
| ATAAAGCG | 0.00524 |
| AGTTCGCG | 0.0423 |
| AAGCAACA | -0.0264 |
| CAGGGTGC | 0.0059 |
| GATGAGAA | 0.0673 |
| CCGTCCGC | -0.41 |
| CTTCTACA | -0.0296 |
| CGCCAACA | 0.0208 |
| CTTGTAAA | 0.199 |
| GCAGGGAA | -0.0199 |

| Sequence | PBM E-score |
| --- | --- |
| AAAACCGT | 0.173 |
| AGCTTCCT | -0.0905 |
| AATCGGAA | 0.0648 |
| GGGGAGGA | -0.263 |
| AGTAATGG | 0.0747 |
| ATGGTTGG | -0.0414 |
| AGGACCCG | 0.19 |
| ATTTCGTG | 0.0636 |
| GAACCTTA | 0.264 |
| CTAACAGC | -0.0498 |
| AACGCAGT | -0.0249 |
| ATAGCCGA | -0.0104 |
| TCGTCCCA | 0.0692 |
| ATTTGTAA | 0.15 |
| AATATATA | 0.0391 |
| CAGCCCTA | -0.00473 |
| GAGTATCC | -0.138 |
| ATGCTGTA | 0.049 |
| CATAGACC | -0.0638 |
| GGGTTCAC | -0.0414 |
| GGGATCTA | -0.0561 |
| ATGATCAG | 0.0568 |
| GAGTATCA | -0.154 |
| TCGCATCA | -0.0702 |
| CAGTAGTA | -0.138 |

| Sequence | PBM E-score |
| --- | --- |
| ATGTGAAA | 0.0158 |
| ACCACCAA | 0.134 |
| AAGTGCTC | -0.25 |
| CTCAGTGA | -0.201 |
| GCTGTAGA | -0.027 |
| ACAATTCT | 0.00604 |
| CGCGTTGA | -0.0346 |
| CCGAAGAC | 0.0271 |
| CTCTAGCC | -0.133 |
| ATCCAGGC | -0.22 |
| GGAAGCCC | -0.175 |
| CTCGCCGC | -0.101 |
| CGTAGAGA | -0.0844 |
| AACCCGAG | 0.236 |
| CGATATAC | -0.174 |
| GGTCCCTA | 0.0819 |
| ACCGGAGA | 0.165 |
| GCCCTCAA | -0.0338 |
| CTGTCGTA | -0.0959 |
| GTAATGAC | 0.128 |
| CTCTATTC | -0.0625 |
| GTTTTACA | -0.0421 |
| ATCCACGC | -0.182 |
| ACGTGCTA | -0.249 |
| CACTGCGA | 0.0909 |

| Sequence | PBM E-score |
| --- | --- |
| CTTCTCAA | 0.0469 |
| GCGTACCC | 0.106 |
| GTAAGAGA | -0.269 |
| AGGAGACA | -0.232 |
| CTGGGTTC | 0.0979 |
| ACCTTTAT | 0.352 |
| CAATTCGC | 0.138 |
| GCATCGGC | -0.215 |
| GGCGGAGA | -0.0875 |
| GTCTAAGA | 0.0701 |
| GTAGGTTA | 0.39 |
| AGATAGAG | -0.0876 |
| CAAGTTCC | -0.042 |
| GGCCCCGA | 0.0916 |
| GAACCAGA | -0.0227 |
| ACGCATCA | 0.119 |
| CAGTTGAA | -0.141 |
| ACTGTAAC | 0.292 |
| CGGTCAAG | 0.0395 |
| AAGTAGCG | -0.271 |
| CTTGACCA | 0.147 |
| CGCGTTGC | 0.117 |
| AGTTTTAC | 0.0307 |
| ATGGCACC | 0.0227 |
| CGGGTGCC | 0.0214 |

| Sequence | PBM E-score |
| --- | --- |
| AGAATTCG | -0.0461 |
| TGTTTGAA | 0.194 |
| GGGGGTCA | -0.132 |
| ACGTGGTG | -0.0216 |
| GACGCGTC | -0.325 |
| CGGCTAAA | -0.12 |
| AGGAAGTA | 0.0438 |
| CTCCCCGC | 0.0789 |
| AAAAAGAT | 0.115 |
| CCTAACGA | 0.093 |
| AACATGCG | -0.0232 |
| ACTAGAAG | -0.0477 |
| GTTCCGTA | 0.0429 |
| AGGATGCG | -0.159 |
| AAACACTA | 0.0817 |
| GTATACCA | 0.197 |
| AAAAGGGA | -0.0112 |
| CGACAGTA | -0.0912 |
| AGGCGCCC | -0.31 |
| AACACACC | 0.129 |
| ATATTGCC | -0.112 |
| ACAAAGTA | 0.0977 |
